Laboratory results reported in the supplement of paper PMC8728848.
The list shows a part of the results.

Legend:
Assay in all cases: glycan array binding signal (z-score within array); higher = stronger binding
Settings in all cases: glycan notation: IUPAC condensed, linker removed
[1] = target: Fuc(a1-3)[Gal3S(b1-4)]GlcNAc
Outline: (§1)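 The binding signal is a Z-score computed within each array. Data were drawn from 3228 arrays in the Consortium for Functional Glycomics database, restricted to those with a known protein sequence. Scores were averaged over arrays of the same protein sequence at different concentrations or buffers, and over linkers, and negative values can be taken as non-binding.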

[2] = target: Fuc(a1-3)[Gal3S(b1-4)]GlcNAc6S
Outline: as §1

[3] = target: Fuc(a1-3)[GalNAc(b1-4)]GlcNAc
Outline: as §1

[4] = target: Fuc(a1-3)[GalNAc(b1-4)]GlcNAc6S
Outline: as §1

Fuc(a1-4)GlcNAc = target: Fuc(a1-4)GlcNAc
Outline: as §1

Fuc(b1-3)GlcNAc = target: Fuc(b1-3)GlcNAc
Outline: as §1

Gal(a1-2)Gal = target: Gal(a1-2)Gal
Outline: as §1

Gal(a1-3)Gal = target: Gal(a1-3)Gal
Outline: as §1

Gal(a1-3)Gal(b1-3)GlcNAc = target: Gal(a1-3)Gal(b1-3)GlcNAc
Outline: as §1

[5] = target: Gal(a1-3)Gal(b1-3)GlcNAc(b1-2)Man
Outline: as §1

[6] = target: Gal(a1-3)Gal(b1-3)GlcNAc(b1-2)Man(a1-3)[Gal(a1-3)Gal(b1-3)GlcNAc(b1-2)Man(a1-6)]Man(b1-4)GlcNAc(b1-4)GlcNAc
Outline: as §1

[7] = target: Gal(a1-3)Gal(b1-3)GlcNAc(b1-3)GalNAc
Outline: as §1

[8] = target: Gal(a1-3)Gal(b1-3)GlcNAc(b1-6)GalNAc
Outline: as §1

[9] = target: Gal(a1-3)Gal(b1-3)[Fuc(a1-4)]GlcNAc(b1-2)Man(a1-3)[Gal(a1-3)Gal(b1-3)[Fuc(a1-4)]GlcNAc(b1-2)Man(a1-6)]Man(b1-4)GlcNAc(b1-4)GlcNAc
Outline: as §1

Gal(a1-3)Gal(b1-4)Glc = target: Gal(a1-3)Gal(b1-4)Glc
Outline: as §1

Gal(a1-3)Gal(b1-4)GlcNAc = target: Gal(a1-3)Gal(b1-4)GlcNAc
Outline: as §1

[10] = target: Gal(a1-3)Gal(b1-4)GlcNAc(b1-2)Man
Outline: as §1

[11] = target: Gal(a1-3)Gal(b1-4)GlcNAc(b1-2)Man(a1-3)[Gal(a1-3)Gal(b1-4)GlcNAc(b1-2)Man(a1-6)]Man(b1-4)GlcNAc(b1-4)GlcNAc
Outline: as §1

[12] = target: Gal(a1-3)Gal(b1-4)GlcNAc(b1-3)GalNAc
Outline: as §1

[13] = target: Gal(a1-3)Gal(b1-4)GlcNAc(b1-6)GalNAc
Outline: as §1

[14] = target: Gal(a1-3)Gal(b1-4)[Fuc(a1-3)]GlcNAc
Outline: as §1

[15] = target: Gal(a1-3)Gal(b1-4)[Fuc(a1-3)]GlcNAc(b1-2)Man(a1-3)[Gal(a1-3)Gal(b1-4)[Fuc(a1-3)]GlcNAc(b1-2)Man(a1-6)]Man(b1-4)GlcNAc(b1-4)GlcNAc
Outline: as §1

Gal(a1-3)GalNAc = target: Gal(a1-3)GalNAc
Outline: as §1

[16] = target: Gal(a1-3)[Gal(a1-4)]Gal(b1-4)GlcNAc
Outline: as §1

[17] = target: Gal(a1-4)Gal(b1-3)GlcNAc(b1-2)Man(a1-3)[Gal(a1-4)Gal(b1-3)GlcNAc(b1-2)Man(a1-6)]Man(b1-4)GlcNAc(b1-4)GlcNAc
Outline: as §1

Gal(a1-4)Gal(b1-4)Glc = target: Gal(a1-4)Gal(b1-4)Glc
Outline: as §1

Gal(a1-4)Gal(b1-4)GlcNAc = target: Gal(a1-4)Gal(b1-4)GlcNAc
Outline: as §1

[18] = target: Gal(a1-4)Gal(b1-4)GlcNAc(b1-2)Man(a1-3)[Gal(a1-4)Gal(b1-4)GlcNAc(b1-2)Man(a1-6)]Man(b1-4)GlcNAc(b1-4)GlcNAc
Outline: as §1

[19] = target: Gal(a1-4)Gal(b1-4)GlcNAc(b1-3)Gal(b1-4)Glc
Outline: as §1

Gal(a1-4)GlcNAc = target: Gal(a1-4)GlcNAc
Outline: as §1

Gal(a1-6)Glc = target: Gal(a1-6)Glc
Outline: as §1

Gal(b1-2)Gal = target: Gal(b1-2)Gal
Outline: as §1

Gal(b1-3)Gal = target: Gal(b1-3)Gal
Outline: as §1

Gal(b1-3)Gal(b1-4)GlcNAc = target: Gal(b1-3)Gal(b1-4)GlcNAc
Outline: as §1

Gal(b1-3)GalNAc = target: Gal(b1-3)GalNAc
Outline: as §1

[20] = target: Gal(b1-3)GalNAc(a1-3)[Fuc(a1-2)]Gal(b1-4)Glc
Outline: as §1

[21] = target: Gal(b1-3)GalNAc(a1-3)[Fuc(a1-2)]Gal(b1-4)GlcNAc
Outline: as §1

Gal(b1-3)GalNAc(b1-3)Gal = target: Gal(b1-3)GalNAc(b1-3)Gal
Outline: as §1

[22] = target: Gal(b1-3)GalNAc(b1-3)Gal(a1-4)Gal(b1-4)Glc
Outline: as §1

[23] = target: Gal(b1-3)GalNAc(b1-4)Gal(b1-4)Glc
Outline: as §1

[24] = target: Gal(b1-3)GalNAc(b1-4)[Neu5Ac(a2-3)]Gal(b1-4)Glc
Outline: as §1

Gal(b1-3)GlcNAc = target: Gal(b1-3)GlcNAc
Outline: as §1

[25] = target: Gal(b1-3)GlcNAc(a1-3)Gal(b1-4)GlcNAc
Outline: as §1

[26] = target: Gal(b1-3)GlcNAc(a1-6)Gal(b1-4)GlcNAc
Outline: as §1

Gal(b1-3)GlcNAc(b1-2)Man = target: Gal(b1-3)GlcNAc(b1-2)Man
Outline: as §1

B1: Gal 3C (Homo sapiens), P17931 (protein)
chain: YGAPAGPLIVPYNLPLPGGVVPRMLITILGTVKPNANRIALDFQRGNDVAFHFNPRFNENNRRVIVCNTKLDNNWGREERQSVFPFESGKPFKIQVLVEPDHFKVAVNDAHLLQYNHRVKKLNEISKLGISGDIDLTSASYTMI
glycan array binding signal (z-score) [1]: -0.139 | glycan array binding signal (z-score) [2]: -0.341 | glycan array binding signal (z-score) [3]: -0.26 | glycan array binding signal (z-score) [4]: -0.269 | glycan array binding signal (z-score) (Fuc(a1-4)GlcNAc): -0.197 | glycan array binding signal (z-score) (Fuc(b1-3)GlcNAc): -0.343 | glycan array binding signal (z-score) (Gal(a1-2)Gal): -0.361 | glycan array binding signal (z-score) (Gal(a1-3)Gal): -0.371 | glycan array binding signal (z-score) (Gal(a1-3)Gal(b1-3)GlcNAc): -0.333 | glycan array binding signal (z-score) [5]: -0.35 | glycan array binding signal (z-score) [6]: -0.243 | glycan array binding signal (z-score) [7]: -0.29 | glycan array binding signal (z-score) [8]: -0.299 | glycan array binding signal (z-score) [9]: -0.221 | glycan array binding signal (z-score) (Gal(a1-3)Gal(b1-4)Glc): -0.304 | glycan array binding signal (z-score) (Gal(a1-3)Gal(b1-4)GlcNAc): -0.312 | glycan array binding signal (z-score) [10]: -0.29 | glycan array binding signal (z-score) [11]: 0.738 | glycan array binding signal (z-score) [12]: -0.309 | glycan array binding signal (z-score) [13]: -0.232 | glycan array binding signal (z-score) [14]: -0.259 | glycan array binding signal (z-score) [15]: -0.257 | glycan array binding signal (z-score) (Gal(a1-3)GalNAc): -0.174 | glycan array binding signal (z-score) [16]: -0.251 | glycan array binding signal (z-score) [17]: -0.287 | glycan array binding signal (z-score) (Gal(a1-4)Gal(b1-4)Glc): -0.203 | glycan array binding signal (z-score) (Gal(a1-4)Gal(b1-4)GlcNAc): -0.274 | glycan array binding signal (z-score) [18]: -0.173 | glycan array binding signal (z-score) [19]: -0.309 | glycan array binding signal (z-score) (Gal(a1-4)GlcNAc): -0.295 | glycan array binding signal (z-score) (Gal(a1-6)Glc): -0.222 | glycan array binding signal (z-score) (Gal(b1-2)Gal): -0.228 | glycan array binding signal (z-score) (Gal(b1-3)Gal): -0.27 | glycan array binding signal (z-score) (Gal(b1-3)Gal(b1-4)GlcNAc): -0.351 | glycan array binding signal (z-score) (Gal(b1-3)GalNAc): -0.277 | glycan array binding signal (z-score) [20]: -0.26 | glycan array binding signal (z-score) [21]: 0.638 | glycan array binding signal (z-score) (Gal(b1-3)GalNAc(b1-3)Gal): -0.282 | glycan array binding signal (z-score) [22]: -0.237 | glycan array binding signal (z-score) [23]: -0.285 | glycan array binding signal (z-score) [24]: -0.291 | glycan array binding signal (z-score) (Gal(b1-3)GlcNAc): -0.332 | glycan array binding signal (z-score) [25]: -0.346 | glycan array binding signal (z-score) [26]: -0.269 | glycan array binding signal (z-score) (Gal(b1-3)GlcNAc(b1-2)Man): -0.143
